Laboratory results: PubChem BioAssay AID624417 (National Center for Advancing Translational Sciences (NCATS), 2012)
About 6,400 (1.6%) of roughly 410,000 compounds were called active. The inconclusive results got no clear call from the source; some entries with a clear call stand among them for comparison. Calls come from the whole dose curve; as a rule, active = well fitted inhibition curve with a large enough effect; inconclusive = small, poorly fitted or top-dose-only effect; inactive = no such curve, though single readings can be large or run the other way. No potency is given beside an inconclusive call; the fits are too rough.

target: Glucagon-like peptide 1 receptor (Homo sapiens) (UniProt P43220); assay: qHTS of GLP-1 Receptor Inverse Agonists (Inhibition Mode); conditions: HEK293 GLP-1R CRE-luciferase, luminescence, 24 h; Potency: GLP-1R form is constitutively active unless noted; activity change, negative = inhibition: at 38.3 µM (top of the series) unless noted; note: nearly all actives have a fitted effect of over 55% in size
Method in brief: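 Assay principle: reduced luminescence from a cAMP-responsive reporter in HEK293 cells co-expressing a constitutively active GLP-1R. Conditions: 24 hr compound incubation, 37 deg C, 5% CO2.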
% is set by controls: 0 for no effect and ±100 for the full control effect; potency is the fitted concentration of half-maximal effect; tags give direction and shape of the fitted curve.

Chain of UniProt P43220 (P43220 whole entry, looked up): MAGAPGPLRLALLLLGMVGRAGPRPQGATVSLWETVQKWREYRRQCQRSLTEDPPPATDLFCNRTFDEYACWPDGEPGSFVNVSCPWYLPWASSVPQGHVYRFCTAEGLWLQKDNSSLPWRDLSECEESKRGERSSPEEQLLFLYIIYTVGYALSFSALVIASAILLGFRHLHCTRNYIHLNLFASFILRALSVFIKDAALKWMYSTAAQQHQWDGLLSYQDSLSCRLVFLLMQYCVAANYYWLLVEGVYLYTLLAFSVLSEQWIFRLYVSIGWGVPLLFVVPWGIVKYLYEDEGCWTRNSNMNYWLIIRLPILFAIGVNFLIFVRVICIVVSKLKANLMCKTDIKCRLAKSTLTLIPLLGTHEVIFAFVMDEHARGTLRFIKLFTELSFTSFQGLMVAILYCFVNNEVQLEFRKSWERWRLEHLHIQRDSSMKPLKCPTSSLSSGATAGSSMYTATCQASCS

SMILES	Potency	activity change, negative = inhibition
COc1ccccc1N1CCN(Cc2ccc(F)cc2)CC1	inconclusive [inhibitor, partial curve, poor fit]	
COc1ccc2[nH]c(C)c(CCNCc3cc(OC)c4c(c3)OCO4)c2c1	inconclusive [inhibitor, single point]	
CN(C)c1ccc(NC(=O)CSc2nc(-c3ccco3)cc(C(F)(F)F)n2)cc1	inconclusive [inhibitor, partial curve, poor fit]	
Cc1c(CCN)ccc2c1[nH]c1ccccc12	inconclusive [inhibitor, single point]	
COC(=O)C1=C(c2cccc(OCc3ccccc3)c2)C[C@@H]2CC[C@H]1N2C(=O)NCCOc1ccccc1	inconclusive [inhibitor, partial curve, poor fit]	
c1ccc(-c2ccncc2)cc1		inactive: -15%
N#Cc1cc2c(nc1SCC(=O)Nc1ccc(OC(F)(F)F)cc1)C1CCN2CC1	inconclusive [inhibitor, partial curve, poor fit]	
CCCCC(=O)N/N=C/c1c(O)n(CCC2=CCCCC2)c(=O)[nH]c1=O	inconclusive [inhibitor, single point]	
O=c1c2ccccc2nc(-c2ccccc2)n1-c1nccs1	inconclusive [inhibitor, partial curve]	
Cc1onc(-c2ccccc2)c1C(=O)Nc1ccc(S(=O)(=O)N2CCCC2)cc1	inconclusive [inhibitor, single point]	
O=C(CF)NC(NC(=S)Nc1cccc([N+](=O)[O-])c1)C(Cl)(Cl)Cl (stereo not drawn)	inconclusive [inhibitor, partial curve, poor fit]	
CCCNC(=O)N1[C@H]2CC[C@@H]1C(C(=O)OC)=C(c1cc3ccccc3s1)C2	inconclusive [inhibitor, partial curve, poor fit]	
COc1cccc(C(=O)C2CCCN(Cc3cccc(C)n3)C2)c1 (stereo not drawn)	inconclusive [inhibitor, partial curve, poor fit]	
O=C(Nc1ccc(Br)cc1)c1ccc(F)c(S(=O)(=O)N2CCCc3ccccc32)c1	active: 3.16 µM	
COC(=O)C1=C(c2ccc(F)cc2OCc2ccccc2)C[C@@H]2CC[C@H]1N2C(=O)NCC1CC1	inconclusive [inhibitor, partial curve, poor fit]	
CCc1ccc(NC(=O)c2ccc(F)c(S(=O)(=O)N3CCC4(CC3)OCCO4)c2)cc1	inconclusive [inhibitor, partial curve, poor fit]	
Cc1cc(N2CCCCC2)nc2ccc(NC(=O)/C=C/c3ccc(OC(C)C)cc3)cc12	inconclusive [inhibitor, full curve, poor fit]	
CC(C)(C)n1nnnc1C(c1cc2ccccc2o1)N1CCC2(CC1)C(=O)NCN2c1ccccc1 (stereo not drawn)	inconclusive [inhibitor, single point]	
CCOC(=O)c1ccc2c(c1)N(CC)C(=O)c1ccccc1S2	inconclusive [inhibitor, single point]	

SMILES	Potency	activity change, negative = inhibition
CC(C)(C)n1nnnc1C(CCc1ccccc1)N1CCC2(CC1)C(=O)NCN2c1ccccc1 (stereo not drawn)	inconclusive [inhibitor, single point]	
Cc1ccccc1C1=NCC(=S)Nc2ccc(Cl)cc21	inconclusive [inhibitor, partial curve, poor fit]	
O=C(Cc1ccc(Cl)cc1)NCCN1CCN(C(=O)Cc2ccc(Cl)cc2)CC1	inconclusive [inhibitor, single point]	
Cc1ccc(CN2CCCC(C(=O)c3ccc4c(c3)OCO4)C2)cc1C (stereo not drawn)	active: 11.2 µM [setting not given]	
CCOC(=O)c1cccc(-[n+]2c(-c3ccccc3)cc(-c3ccccc3)cc2-c2ccccc2)c1	inconclusive [inhibitor, partial curve, poor fit]	
c1ccc2c(c1)-c1cccc3cccc-2c13		inactive: 15.1%
Cc1ccccc1CN1CCc2nc(N3CCN(c4ccccn4)CC3)ncc2C1	inconclusive [inhibitor, partial curve, poor fit]	
O=c1c2ccccc2nc(/C=C/c2ccc(O)cc2)n1-c1ccc(O)cc1		inactive: -23.7%
CC(N)Cc1c[nH]c2c1ccc1ccccc12 (stereo not drawn)	inconclusive [inhibitor, partial curve, poor fit]	
Cc1cccc(NC(=O)Cn2cc(C(=O)c3ccccc3)c3ccccc32)c1	inconclusive [inhibitor, single point]	
CC(=O)NS(=O)(=O)c1ccc(NC(=O)c2cccn(Cc3ccc(Cl)cc3)c2=O)cc1	inconclusive [inhibitor, single point]	
CN1C(=O)N(C)C(=O)C2(Cc3c(ccc4ccccc34)N(C)C2)C1=O	inconclusive [inhibitor, single point]	
Cc1ccc(-c2cc(-c3ccccc3)cc(-c3ccccc3)[n+]2-c2ccccc2C(=O)O)cc1	inconclusive [inhibitor, single point]	
c1ccc(CCCN2CCN(CCOC(c3ccccc3)c3ccccc3)CC2)cc1	inconclusive [inhibitor, single point]	
NP(=O)(Oc1ccccc1Cl)Oc1ccccc1Cl	inconclusive [inhibitor, partial curve, poor fit]	
CCCCn1c(=O)c(C=Nc2ccc(Cl)cc2)c(O)n(Cc2ccco2)c1=O	inconclusive [inhibitor, single point]	
CCOc1cc(CNCCc2c[nH]c3ccccc23)cc(Cl)c1OCC	active: 11.2 µM [setting not given]	
COc1cc2c(cc1OC)CN(c1ccc([N+](=O)[O-])c(C(F)(F)F)c1)CC2	active: 7.94 µM [setting not given]	
CCOC(=O)C1(c2ccccc2)CCN(CCC(=O)Nc2ccc(OC)cc2)CC1	inconclusive [inhibitor, partial curve, poor fit]	
